Assay results from ChEMBL document CHEMBL1961873, “Compounds: GSK PKIS; Assays: Nanosyn kinase panel” (2012).
For part of these data: Shown are results outside the selection of strong results, which stands elsewhere. The entries are a selection whose mix differs from that of the whole data set.

Assays:
[1] = molecular target: Tyrosine-protein kinase receptor UFO (Homo sapiens) (UniProt P30530); settings: at 1 µM
[2] = molecular target: Tyrosine-protein kinase Blk (Homo sapiens) (UniProt P51451); settings: at 0.1 µM
[3] = molecular target: Tyrosine-protein kinase Blk (Homo sapiens) (UniProt P51451); settings: at 1 µM
[4] = molecular target: T1, Cytoplasmic tyrosine-protein kinase BMX (Homo sapiens) (UniProt P51813); settings: at 0.1 µM
T1 sequence (whole entry): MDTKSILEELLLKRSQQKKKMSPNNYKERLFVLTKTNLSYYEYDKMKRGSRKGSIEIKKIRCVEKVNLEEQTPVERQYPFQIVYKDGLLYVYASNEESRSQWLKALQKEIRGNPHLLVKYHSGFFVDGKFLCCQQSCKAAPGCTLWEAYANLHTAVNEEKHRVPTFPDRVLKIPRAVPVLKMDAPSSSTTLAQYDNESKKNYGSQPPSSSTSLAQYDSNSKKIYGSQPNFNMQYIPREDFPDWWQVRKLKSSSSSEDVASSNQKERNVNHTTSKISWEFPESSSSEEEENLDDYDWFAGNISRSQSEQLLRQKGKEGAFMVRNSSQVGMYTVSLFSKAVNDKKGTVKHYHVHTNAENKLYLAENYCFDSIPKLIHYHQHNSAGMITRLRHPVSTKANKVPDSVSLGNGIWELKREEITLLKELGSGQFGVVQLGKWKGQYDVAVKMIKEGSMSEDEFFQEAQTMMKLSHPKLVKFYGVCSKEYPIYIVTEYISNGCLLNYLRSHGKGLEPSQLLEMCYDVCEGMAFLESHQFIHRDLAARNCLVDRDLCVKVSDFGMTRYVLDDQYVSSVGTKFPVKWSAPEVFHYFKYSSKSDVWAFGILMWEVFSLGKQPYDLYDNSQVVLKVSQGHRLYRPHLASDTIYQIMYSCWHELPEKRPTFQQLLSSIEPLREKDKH

[5] = molecular target: T1, Cytoplasmic tyrosine-protein kinase BMX (Homo sapiens); settings: at 1 µM
[6] = molecular target: Protein-tyrosine kinase 6 (Homo sapiens) (UniProt Q13882); settings: at 0.1 µM
[7] = molecular target: Protein-tyrosine kinase 6 (Homo sapiens) (UniProt Q13882); settings: at 1 µM
[8] = molecular target: Tyrosine-protein kinase BTK (Homo sapiens) (UniProt Q06187); settings: at 0.1 µM
[9] = molecular target: Tyrosine-protein kinase BTK (Homo sapiens) (UniProt Q06187); settings: at 1 µM
[10] = molecular target: Tyrosine-protein kinase CSK (Homo sapiens) (UniProt P41240); settings: at 0.1 µM;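 also: value given is the averaged percent inhibition of CSK kinase activity, from the GSK PKIS kinase inhibitor set screening panel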

Row | Compound | inhibition [1] [%] | inhibition [2] [%] | inhibition [3] [%] | inhibition [4] [%] | inhibition [5] [%] | inhibition [6] [%] | inhibition [7] [%] | inhibition [8] [%] | inhibition [9] [%] | inhibition [10] [%]
1 | CC(C)(C)c1ccc(Oc2nccc(-c3c(-c4ccc(F)cc4)ncn3C3CCNCC3)n2)cc1 | -1.65 | 1.04 | 3.11 | 3.34 | 3.63 | 4.36 | 4.11 | -0.77 | -0.84 | 2.73
2 | Fc1ccc(Oc2nccc(-c3c(-c4ccc(F)cc4)ncn3C3CCNCC3)n2)cc1 |  | -1.53 | -2.68 | 3.71 | 7.33 | 3.52 | 3.45 | -4.19 | -3.63 | 1.71
3 | O=C1NC(=O)C(c2ccccc2Cl)=C1Nc1cc(Cl)c(O)c(Cl)c1 | -4.63 | 2.25 | 1.18 | -1.65 | 5.49 | 3.24 | 3.13 | 0.41 | -0.19 | 7.73
4 | O=C(O)c1ccc(Oc2nccc(-c3c(-c4ccc(F)cc4)ncn3C3CCNCC3)n2)cc1 | -6.84 | 1.4 | 1.74 | 3.58 | 6.96 | 1.43 | 1.47 | -1.81 | -0.67 | 0.4
5 | COc1ccccc1Oc1nccc(-c2c(-c3ccc(F)cc3)ncn2C2CCNCC2)n1 | -4.58 | 3.3 | 6.98 | 3.59 | 5.8 | 2.68 |  | -0.07 | 0.6 | 3.89
6 | O=C1NC(=O)C(c2ccccc2)=C1Nc1ccccc1 | -6.3 | 4.12 | 3.55 | -0.65 | 4.27 | 5.31 | 7.17 | -1.36 | 1.02 | 6.16
7 | NC(=O)CCc1ccccc1Oc1nccc(-c2c(-c3ccc(F)cc3)ncn2C2CCNCC2)n1 | 1.56 | -2.5 | -0.54 | -1.3 | 0.07 | 0.32 | -1.18 | -0.99 | -0.94 | -0.65
8 | Fc1ccc(-c2ncn(C3CCNCC3)c2-c2ccnc(Oc3cccc(C(F)(F)F)c3)n2)cc1 | -6.06 | 2.9 | 5.32 | 5.27 | 4.97 | 5.49 | 7.39 | -0.1 | 2.74 | 5.43
9 | Cc1cccc(Oc2nccc(-c3c(-c4ccc(F)cc4)ncn3C3CCNCC3)n2)c1C | -4.55 | 2.01 | 3.56 | 3.46 | 3.1 | 0.87 | 4.02 | -0.86 | -0.39 | -0.25
10 | CS(=O)(=O)c1ccc(Oc2nccc(-c3c(-c4ccc(F)cc4)ncn3C3CCNCC3)n2)cc1 | -5.8 | 1.82 | 3.05 | 4.47 | 3.37 | 4.09 | 5.67 | -0.44 | -0.02 | -0.29
11 | Fc1ccc(-c2ncn(C3CCNCC3)c2-c2ccnc(Oc3cccc(F)c3)n2)cc1 | -5.13 | 5.81 | 4.86 | 3.89 | 6.47 | 4.75 | 4.97 | -0.06 | 3.39 | 1.11
12 | O=C1NC(=O)C(c2cccc([N+](=O)[O-])c2)=C1Nc1cc(Cl)c(O)c(Cl)c1 | 1.02 | 3.37 | 1.36 | 1.71 | 0.42 | 1.7 | 2.07 | 1.4 | 1.62 | 0.51
13 | Fc1ccc(-c2ncn(C3CCNCC3)c2-c2ccnc(Oc3ccc(Cl)cc3)n2)cc1 | 0.46 | 0.54 | 1.92 | 0.19 | 1.7 | 2.34 | 1.01 | 0.07 | 1.2 | 0.72
14 | COc1ccccc1C1=C(Nc2ccccc2)C(=O)NC1=O | -1.8 | 2.73 | 12.8 | -0.78 | 3.52 | 1.85 | 3.7 | 1.08 | 1.15 | 3.93
